From the antibiotic and cytotoxicity screens of Wong et al. (2023)
This is one part of the list.

System: HepG2
Assay: cytotoxicity call (relative viability < 0.9)
Conditions: 10 µM

Row | Compound | cytotoxicity call
1 | C[C@@H]1CN([C@H](C)CO)C(=O)c2cc(NC(=O)Nc3ccc4c(c3)OCO4)ccc2O[C@@H]1CN(C)C(=O)Nc1cccc2ccccc12 | inactive
2 | CN1C(=O)c2cc(NC(=O)C3CCCC3)ccc2OC[C@@H]2O[C@H](CC(=O)NCCc3ccncc3)CC[C@H]21 | inactive
3 | COc1ccccc1C#Cc1ccc2c(c1)O[C@H](CN(C)Cc1cncnc1)[C@H](C)CN([C@@H](C)CO)S2(=O)=O | inactive
4 | C[C@@H]1CN([C@@H](C)CO)C(=O)c2cccc(NC(=O)C3CCOCC3)c2O[C@H]1CN(C)S(=O)(=O)c1ccc(F)cc1 | inactive
5 | CC(C)N1C[C@H](C)[C@@H](CN(C)Cc2ccc(Oc3ccccc3)cc2)Oc2c(NC(=O)c3ccccn3)cccc2C1=O | inactive
6 | COC1=C(OC)C(=O)C(CCCCCCCCCC[P+](c2ccccc2)(c2ccccc2)c2ccccc2)=C(C)C1=O | active
7 | CC(=O)N1[C@H](CO)[C@H](c2ccccc2)[C@H]1CNC(=O)CN1CCOCC1 | inactive
8 | Cc1noc(C)c1S(=O)(=O)Nc1ccc2c(c1)C(=O)N([C@@H](C)CO)C[C@H](C)[C@H](CN(C)S(=O)(=O)c1c(C)noc1C)O2 | inactive
9 | C[C@@H]1CCCCO[C@@H](CN(C)Cc2ccc(Cl)c(Cl)c2)[C@@H](C)CN([C@H](C)CO)C(=O)c2cc(NS(=O)(=O)c3cn(C)cn3)ccc2O1 | inactive
10 | C[C@H](CO)N1C[C@H](C)[C@H](CN(C)S(=O)(=O)c2ccc(Cl)cc2)OCCCC[C@H](C)Oc2ccc(NC(=O)Nc3cccc4ccccc34)cc2C1=O | inactive
11 | COc1ccc(NC(=O)Nc2ccc3c(c2)CC(=O)N([C@H](C)CO)C[C@H](C)[C@@H](CN(C)S(C)(=O)=O)O3)cc1 | inactive
12 | O=C(C[C@@H]1CC[C@@H]2[C@H](COC[C@H](O)CN2S(=O)(=O)c2ccccc2)O1)NCc1ccncn1 | inactive
13 | COc1ccc(S(=O)(=O)Nc2cccc3c2O[C@H](CN(C)C(=O)NC(C)C)[C@H](C)CN([C@H](C)CO)C3=O)cc1 | inactive
14 | CC[C@@H](N)CC12CC3CC(CC(C3)C1)C2 | inactive
15 | CC(C)N(C)C(=O)c1cccc(NC(=O)c2ccncc2)c1OCCCN(C)Cc1ccc(Oc2ccccc2)cc1 | inactive
16 | C[C@@H]1CCCCO[C@@H](CN(C)C(=O)Nc2cccc3ccccc23)[C@@H](C)CN([C@H](C)CO)C(=O)c2cc(NC(=O)c3ccccc3)ccc2O1 | inactive
17 | C[C@@H]1CN([C@H](C)CO)C(=O)c2cc(NC(=O)Nc3ccccc3)ccc2O[C@@H](C)CCCCO[C@H]1CN(C)C(=O)C1CCCCC1 | inactive
18 | C[C@@H]1CN([C@H](C)CO)C(=O)c2c(c3ccccc3n2C)-c2ccccc2CO[C@H]1CN(C)S(=O)(=O)c1ccc(C(F)(F)F)cc1 | inactive
19 | O=C(C[C@H]1CC[C@H](NS(=O)(=O)c2ccc(F)cc2)[C@@H](CO)O1)N1CCC(Cc2ccccc2)CC1 | inactive
20 | C[C@@H]1CCCCO[C@H](CN(C)S(=O)(=O)c2ccc(Cl)cc2)[C@H](C)CN([C@@H](C)CO)C(=O)c2cc(NC(=O)Nc3ccc4c(c3)OCO4)ccc2O1 | active

Row | Compound | cytotoxicity call
21 | C[C@@H]1CCCCO[C@@H](CN(C)C(=O)Nc2ccc(F)cc2)[C@@H](C)CN([C@@H](C)CO)C(=O)c2cc(NC(=O)Nc3ccccc3)ccc2O1 | inactive
22 | C[C@H]1CN([C@@H](C)CO)C(=O)Cc2cc(NS(=O)(=O)c3ccc(F)cc3)ccc2O[C@H]1CN(C)Cc1ccc(Oc2ccccc2)cc1 | active
23 | C[C@H](CO)N1C[C@H](C)[C@@H](CN(C)S(=O)(=O)c2ccccc2C#N)OCc2cnnn2CCCC1=O | inactive
24 | COc1cccc(C#Cc2cnc3c(c2)C(=O)N([C@H](C)CO)C[C@H](C)[C@H](CN(C)C(=O)C2CCC2)O3)c1 | inactive
25 | COc1ccc(NC(=O)N(C)C[C@H]2OCCCC[C@@H](C)Oc3ccc(NS(=O)(=O)c4cccs4)cc3C(=O)N([C@@H](C)CO)C[C@H]2C)cc1 | inactive
26 | CCCC(=O)Nc1ccc2c(c1)OC[C@H](C)N(S(=O)(=O)c1cn(C)cn1)C[C@@H](C)[C@@H](OC)CN(C)C2=O | inactive
27 | O=C(CN1CCOCC1)N[C@H]1CC[C@H](CCn2cc(C3CC3)nn2)O[C@H]1CO | inactive
28 | C[C@H](CO)N1C[C@H](C)[C@H](CN(C)S(C)(=O)=O)OCCCC[C@H](C)Oc2ccc(NC(=O)CCCN(C)C)cc2C1=O | inactive
29 | Cc1noc(C)c1S(=O)(=O)N(C)C[C@H]1Oc2ccc(NC(=O)C3CC3)cc2CC(=O)N([C@@H](C)CO)C[C@@H]1C | inactive
30 | Cc1noc(C)c1NC(=O)Nc1ccc2c(c1)C(=O)N([C@H](C)CO)C[C@@H](C)[C@@H](CN(C)Cc1ccccc1)OCCCC[C@@H](C)O2 | inactive
31 | C[C@@H]1CN([C@@H](C)CO)C(=O)c2cc(NC(=O)CCCCCC(=O)Nc3ccccc3N)ccc2O[C@@H]1CN(C)S(=O)(=O)c1cn(C)cn1 | inactive
32 | COc1ccccc1/C=C/C=C1/C(=O)N(c2cc(C)cc(C)c2)[C@@H](c2cccc([N+](=O)[O-])c2)S1(=O)=O | inactive
33 | CN(C)CCCNC(=O)C[C@@H]1CC[C@H]2[C@@H](COc3ccc(NC(=O)c4ccc5c(c4)OCO5)cc3C(=O)N2C)O1 | inactive
34 | O=C(C[C@@H]1C=C[C@@H](NC(=O)CN2CCOCC2)[C@@H](CO)O1)NCCc1ccncc1 | inactive
35 | COCC(=O)N(C)C[C@@H]1Oc2cc(C#CCC3CCCC3)ccc2S(=O)(=O)N([C@H](C)CO)C[C@H]1C | inactive
36 | C[C@@H]1CCCCO[C@@H](CN(C)Cc2ccc(C(F)(F)F)cc2)[C@@H](C)CN([C@H](C)CO)C(=O)c2cc(NC(=O)CCC(F)(F)F)ccc2O1 | inactive
37 | COc1ccc(NC(=O)Nc2ccc3c(c2)CC(=O)N([C@@H](C)CO)C[C@H](C)[C@H](CN(C)Cc2ccc(C(F)(F)F)cc2)O3)cc1 | active
38 | C[C@@H]1CCCCO[C@@H](CN(C)C(=O)C2CCCCC2)[C@H](C)CN([C@@H](C)CO)C(=O)c2cc(NS(=O)(=O)c3ccc(Cl)cc3)ccc2O1 | inactive
39 | C[C@@H]1CN([C@H](C)CO)C(=O)c2cc(Br)cnc2O[C@@H]1CN(C)S(=O)(=O)c1ccc(F)cc1 | inactive
40 | C[C@@H]1CCCCO[C@@H](CN(C)Cc2ccc(C(F)(F)F)cc2)[C@@H](C)CN([C@@H](C)CO)C(=O)c2cc(NS(=O)(=O)c3ccc(Cl)cc3)ccc2O1 | inactive
